In PubChem BioAssay AID485297 (National Center for Advancing Translational Sciences (NCATS), 2010):
The campaign covered roughly 320,000 compounds. About 9,100 (2.8%) were called active. Inconclusive results, whose numbers are uncertain, are shown with a selection of clear calls. Calls follow the shape of the dose curve; as a rule, active = well fitted activation curve with a large enough effect; inconclusive = small, poorly fitted or top-dose-only effect; inactive = no such curve, though single readings can be large or run the other way. Potencies of inconclusive entries are doubtful fits and often do not repeat.

Test: qHTS Assay for Rab9 Promoter Activators; also: nearly all actives have a fitted effect of over 60% in size; as to activation, negative = inhibition: % of control where 0% means no effect
Conditions: Huh7 Rab9 promoter-luciferase reporter, luminescence, 24 h; series mostly up to 9.22 µM
Summary of the method: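 Luminescence read-out: Huh7 cells stably expressing Rab9-luciferase, treated 24 h with compound at 37 °C, then lysed with luciferase reagent for 10 min at ambient before reading.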
Potency is read from the fitted curve at half-maximal effect; tags tell the direction and shape of the fitted curve.

Potency, active:
CC(=O)Nc1nc(COc2ccc3ccccc3c2)cs1 6.31 µM
CNc1cc(CSc2ccc(Cl)cc2)nc(C)n1 2.24 µM
Cc1cccc(-c2nc3ccccc3c(=O)[nH]2)c1 3.16 µM
C/C(=C\C(=O)c1ccccc1)Nc1ccc(O)cc1 3.55 µM
O=C(Nc1nccs1)c1c(O)c2c([nH]c1=O)CCCC2 2.24 µM
COc1ccc(OCc2cc(C(=O)N3CCCC(CO)C3)no2)c2ccccc12 (stereo not given) 3.98 µM

Potency, inactive:
CCc1c(C)nc2cc(C)[nH]n2c1=O
N#CC(C(=O)OCc1ccccc1)c1nc2ccccc2nc1N1CCOCC1 (stereo not given)
N#C/C(=N\Nc1cccc(F)c1)C(=O)C1CC1
O=C(O)C1CSCN1S(=O)(=O)c1cccc2nsnc12 (stereo not given)
Cn1c(=O)n(C)c2cc(NC(=O)Cc3ccccc3[N+](=O)[O-])ccc21
O=C1NC2(CCCCCC2)C(=O)N1Cc1c(F)cccc1Cl
Cc1ccccc1OCC(=O)O/N=C(\N)Cc1cccs1
CCNC(=O)C(=O)Nc1ccc2c(c1)N(S(=O)(=O)c1cccs1)CCC2
NS(=O)(=O)c1ccc(NC(=O)c2cc(-c3cc(Cl)ccc3O)n[nH]2)cc1
CC(=O)N1N=C(c2cccnc2)OC1c1ccc(C(C)C)cc1 (stereo not given)
CCOC(=O)C(C)On1c(-c2ccc(Cl)cc2)nc2ccc([N+](=O)[O-])cc21 (stereo not given)
COC(=O)[C@H](CC(C)C)NC(=O)Nc1ccc(F)cc1
Cc1cc[n+]2cc(-c3cccc([N+](=O)[O-])c3)c(-c3cccc([N+](=O)[O-])c3)cc2c1
Cc1cc([N+](=O)[O-])ccc1NCc1ccccc1[N+](=O)[O-]
CCCOC(=O)c1c(-c2ccc(C)cc2C)csc1NC(=O)C1C2CCC(O2)C1C(=O)O (stereo not given)
O=C(CCNC(=O)c1ccccc1Cl)Nc1ccc2c(c1)OCO2
CCCC(C(=O)Nc1ccc(S(=O)(=O)Nc2nccs2)cc1)c1ccccc1 (stereo not given)

Potency, inconclusive:
CCCCCc1ccc(-c2nnc(N)s2)cc1 3.16 µM [activator, partial curve]
Cc1ccc(C(=O)Nc2ccc(Cl)cc2C(F)(F)F)c(Cl)c1 4.47 µM [activator, single point]
O=C(Nc1ccc2c(c1)OCO2)C1CC(c2c(F)cccc2Cl)=NO1 (stereo not given) 0.562 µM [activator, partial curve]
CN(C(=O)c1ccc2c(Cl)c3c(nc2c1)CCC3)c1ccccc1 5.62 µM [activator, single point]
CCc1ccc(NC2=NCC(c3ccccc3)S2)cc1 (stereo not given) 2.24 µM [activator, partial curve]
CCCn1cnc2c(cnn2-c2ccc(F)cc2)c1=O 2.51 µM [activator, partial curve]
C=CCN=c1scc(-c2ccc(F)cc2)n1/N=C/c1ccccn1 2.51 µM [activator, partial curve]
O=C(O)c1cccc(NC2=Nc3cccc4cccc2c34)c1 0.112 µM [activator, full curve, poor fit]
O=Nc1c2nc3ccccc3n(O)c-2c2ccccc12 5.62 µM [activator, single point]
O=C(Nc1ccc(CN2CCCCC2)cc1)c1cccc(Br)c1 5.62 µM [activator, single point]
CC(C)(CNC(=O)c1ccc(-c2ccccc2Cl)o1)N1CCOCC1 3.55 µM [activator, single point]
COc1ccc(NC(=S)NC(=O)Cc2ccccc2)cc1 6.31 µM [activator, single point]
CCOc1ccc(N=C(/C(C(=O)C(=O)N2CCOCC2)=C(\O)c2ccccc2)c2ccccc2)cc1 6.31 µM [activator, single point]
CC(C)OCCOc1ccc2oc(-c3ccco3)cc(=O)c2c1 3.98 µM [activator, partial curve]
CCn1c(SCC(=O)Nc2ccc(C(C)=O)cc2)nc2nc3c(cc2c1=O)COC(C)(C)C3 3.98 µM [activator, partial curve]
Cc1ccc(C(=O)NCCc2ccncc2)cc1 3.98 µM [activator, single point]
CCOC(=O)c1cnn(-c2ccc(C(C)C)cc2)c1NC(=O)C1CCC1 2.51 µM [activator, partial curve]
O=C(CCCSc1ccc(Cl)cc1)Nc1ccccc1O 5.62 µM [activator, single point]
Cc1cccc(NC(=O)c2cc(-c3cc(C)ccc3O)n[nH]2)c1 0.794 µM [activator, full curve]
O=C(CSCC(=O)N1CCOCC1)Nc1nc(-c2ccccc2)cs1 1.78 µM [activator, partial curve]
Cc1ccc2nc(SCC(=O)c3ccccc3)nc(=O)n2c1 0.794 µM [activator, partial curve]
COc1ccc(CCN2CC(C(=O)N(C)Cc3ccc(C)o3)CCC2=O)cc1 (stereo not given) 3.16 µM [activator, single point]
CC1(C)CN=c2s/c(=C\c3ccc(Cl)cc3)c(=O)n2C1 3.55 µM [activator, single point]
COc1ccc(CNC(=O)c2cc(C3CC3)on2)cc1 3.98 µM [activator, single point]
CCCOc1ncnc2c1[nH]c1ccc(C)cc12 1 µM [activator, single point]
COc1cc(-c2nnn(CC#N)n2)ccc1OCc1ccccc1 3.16 µM [activator, partial curve]

activation, negative = inhibition, inactive:
CCCC[C@]12Cc3cc(C#N)ccc3C(O1)c1c(cc(C)n(-c3ccccc3)c1=O)O2 -0.391% [at 1.84 µM]
